Out of some 50,000 compounds screened, about 800 (1.6%) showed an effect of 50% or more. Some of the results follow.
target: Bcl-2-like protein 10 (Homo sapiens) (UniProt Q9HD36); experiment: TR3 peptide-Bcl-B binding displacers, biochemical primary FP assay, phenotype converters (AID 1240); details: GST-Bcl-B / FITC-TR3 peptide fluorescence polarization; stronger effect = higher value; compound at 3.75 mg/L;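 note: 0% = Bcl-B with tracer peptide and DMSO and 100% = tracer peptide lacking Bcl-B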
Chain of UniProt Q9HD36 (Q9HD36 whole entry, looked up): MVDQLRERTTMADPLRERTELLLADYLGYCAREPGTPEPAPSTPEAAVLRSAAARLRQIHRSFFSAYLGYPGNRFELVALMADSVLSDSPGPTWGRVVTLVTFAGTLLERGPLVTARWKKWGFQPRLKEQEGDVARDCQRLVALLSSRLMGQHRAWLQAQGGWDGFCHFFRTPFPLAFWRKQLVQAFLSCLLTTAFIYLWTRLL

First: COc1ccc(S(=O)(=O)n2nnc3ccccc32)cc1
Second: COc1ccc(C(=O)/C=C/Nc2ccccc2O)cc1
The displacement of the first is lower: 3.4% for the first, 7.8% for the second.

Compared with `CC1CCc2c(sc(NC(=O)CCC(=O)O)c2C(=O)Nc2ccc(Cl)cc2)C1` (stereo not given), `Cc1ccc(-c2csc(NC(=O)CCCC(=O)O)c2C(=O)OC(C)C)cc1` is lower in displacement: -1.4% for the first, -9.2% for the second.

Compared with `Cc1ccc(Cl)c(OCCCCN2CCCCC2)c1`, `Cc1cccc(OCC(=O)NCCCN(C)C)c1` is higher in displacement: -1.7% for the first, 11.4% for the second.

Compared with `Cc1ccc(C)c(OCC(=O)N/N=C/C=N/NC(=O)COc2cc(C)ccc2C)c1`, `COC(=O)c1cccc(NC(=O)c2ccc(C)cc2)c1` is higher in displacement: 0.1% for the first, 16.1% for the second.

First: COc1ccc(N2C(=O)NC(=O)/C(=C/c3ccc(OCc4ccccc4F)c(OC)c3)C2=O)cc1
Second: COc1ccc(N(CC(=O)NCCc2ccc(F)cc2)S(=O)(=O)c2ccccc2)c(OC)c1
The displacement of the first is lower: -39.4% for the first, -5.4% for the second.

Compared with `COc1cccc(CN2CCN(C(=O)c3ccc(F)cc3)CC2)c1OC`, `COc1ccc(C(=O)N2CCN(c3ccc([N+](=O)[O-])cc3)CC2)cc1Br` is higher in displacement: -10.8% for the first, 13.9% for the second.

Going from `Cc1nc2cc(N=Cc3c[nH]c4ccccc34)ccc2n1C` to `Cc1cc2c(nc3s/c(=C\c4ccc(-c5ccc(F)cc5)o4)c(=O)n32)c(Br)c1C`, the displacement falls from 4.8% to -9%.

Compared with `c1ccc(Cn2c(CSc3nc4ccccc4o3)nc3ccccc32)cc1`, `O=C(CSc1nnc(-c2ccco2)n1-c1ccccc1)NC(c1ccccc1)c1ccccc1` is lower in displacement: 6.8% for the first, -16.2% for the second.

Going from `CCOC(=O)c1c(NC(=O)/C=C/c2ccccc2)sc2c1CC(C)(C)OC2` to `COc1cc(C2C(C(=O)OCc3ccccc3)=C(C)NC3=C2C(=O)CC(C)(C)C3)ccc1OC(C)=O` (stereo not given), the displacement falls from 13.8% to -5.1%.

Going from `COc1ccc(Br)cc1C(=O)Nc1ccc2oc(-c3ccccc3F)nc2c1` to `Cc1cccc(-c2nc3cc(NC(=O)c4cccc(Cl)c4Cl)ccc3o2)c1`, the displacement falls from 13.4% to 10.9%.

First: CC(=O)Nc1c(C)ccc2c1C(C)CC21CCCC1 (stereo not given)
Second: CC(=O)Nc1ccc2[nH]c(C)cc(=O)c2c1
The displacement of the first is lower: -11.9% for the first, 5.4% for the second.

First: CCn1cc(C(=O)O)c(=O)c2cc(-c3ccc([N+](=O)[O-])o3)c(Cl)cc21
Second: O=C(Nc1ccc(Cl)c(Cl)c1)c1ccc([N+](=O)[O-])o1
The displacement of the first is higher: 33.9% for the first, -8% for the second.

First: COc1ccc([N+](=O)[O-])cc1NCc1ccco1
Second: O=C(Cc1ccccc1)Nc1ccc([N+](=O)[O-])cc1Cl
The displacement of the first is higher: 8.5% for the first, 4.8% for the second.

First: CSCCOC(=O)C1=C(C)NC(=O)NC1c1cccc([N+](=O)[O-])c1 (stereo not given)
Second: COc1cc(C(=O)N/C(=C/c2cccc([N+](=O)[O-])c2)C(=O)NCC(=O)O)cc(OC)c1OC
The displacement of the first is higher: 8.4% for the first, -4.5% for the second.

Going from `Clc1cccc(CN2CCN(Cc3cccnc3)CC2)c1` to `O=C(Nc1ccccc1C(=O)N1CCCC1)c1ccc(Cl)cc1`, the displacement rises from -6.5% to -3.6%.

First: O=C(N/N=C/c1ccc(OC(=O)c2ccco2)cc1)c1ccncc1
Second: O=C(Nc1ccccc1C(=O)N/N=C/c1ccc(F)cc1)c1ccccc1Br
The displacement of the first is higher: 9.3% for the first, -0.5% for the second.

Compared with `O=C1C2C3CCC(O3)C2C(=O)N1c1ccccc1` (stereo not given), `N#Cc1sc2nc(C3CC3)cc(-c3ccccc3)c2c1N` is lower in displacement: 2.7% for the first, -7.5% for the second.

First: CCOc1ccc2nc(SCC(=O)c3ccc(F)cc3)sc2c1
Second: CCOc1ccc2nc(SC3CC(=O)N(c4ccc(C)cc4C)C3=O)sc2c1 (stereo not given)
The displacement of the first is lower: -14.5% for the first, -8.7% for the second.

First: COc1ccc(N(C(=O)c2ccccc2F)C2C=CS(=O)(=O)C2)cc1 (stereo not given)
Second: O=C(Oc1ccc2c(c1)oc(=O)c1ccccc12)c1ccccc1Cl
The displacement of the first is lower: -3.6% for the first, 1.4% for the second.

First: O=C1CCCC2=C1C(c1ccc(Cl)cc1Cl)Nc1ccc(C(=O)c3ccccc3)cc1N2 (stereo not given)
Second: Cc1cccc(C(=O)Nc2ccc(C(=O)/C=C/c3cccs3)cc2)c1
The displacement of the first is higher: 0.1% for the first, -0.3% for the second.

Going from `Cc1cn(S(=O)(=O)c2cc(Cl)ccc2Cl)cn1` to `O=C(Nc1cc(Cl)cc(Cl)c1)Nc1ccc(Cl)c(Cl)c1`, the displacement falls from 13.8% to 7.3%.

Going from `Cc1cc(C)c(NC(=O)c2cccc(I)c2)c(C)c1` to `Cc1cc(NC(=O)C(C)C)ccc1NC(=O)c1cccs1`, the displacement rises from -5.7% to 3.2%.

Going from `COc1ccc(C(=O)Nc2ccc(OC)cc2[N+](=O)[O-])c(OC)c1` to `COc1ccc2oc(=O)c(C(=O)Nc3cccc(Cl)c3C)cc2c1`, the displacement falls from 29.1% to 16.4%.

Going from `CCN1C(=O)/C(=C\c2cc(Cl)c(O)c(Cl)c2)SC1=S` to `C=CCN1C(=O)/C(=C\c2ccc(-c3ccc(F)c(Cl)c3)o2)SC1=S`, the displacement rises from -58.1% to 39.4%.

Compared with `O=[N+]([O-])c1ccc(N/N=C(\c2ccccc2)c2ccncc2)c([N+](=O)[O-])c1`, `Cc1nnc(NC(=O)C(Sc2ccccc2)c2ccccc2)s1` (stereo not given) is higher in displacement: 1.8% for the first, 3.8% for the second.

Compared with `CCOC(=O)C(=CNc1ccc(OC)c(OC)c1)C(=O)OCC`, `CCC(CC)C(=O)Nc1cc(OC)ccc1OC` is higher in displacement: 6.6% for the first, 12.1% for the second.

First: O=C(Nc1ccc(Cc2ccc(NC(=O)Nc3ccccc3O)cc2)cc1)Nc1ccccc1O
Second: O=C(Nc1cccc(Cl)c1)Nc1nnc(COc2ccc(F)cc2)s1
The displacement of the first is higher: 10.2% for the first, 7.9% for the second.

First: CCCOc1cccc(C(=O)Nc2ccc(Br)cc2C(=O)O)c1
Second: CCCCOc1ccccc1NC(=O)c1cc(OC)c(OC)c(OC)c1
The displacement of the first is lower: 8.3% for the first, 18% for the second.

Compared with `O=C(O)CCCNS(=O)(=O)c1ccc(Br)cc1`, `CC(=O)Nc1ccc(NC(=O)c2ccco2)c(C)c1` is lower in displacement: 28.6% for the first, -14% for the second.

Compared with `COCCNC(=O)/C=C/c1ccc2c(c1)OCO2`, `O=C(NCC1CCCO1)c1cnn2c(C(F)(F)F)cc(-c3ccc4c(c3)OCO4)nc12` (stereo not given) is higher in displacement: 14.1% for the first, 24.9% for the second.

First: Cc1cc(I)ccc1N/C=C/[N+](=O)[O-]
Second: COc1ccc(C(N)=O)cc1N=NC1=C(O)CC(C)(C)CC1=O
The displacement of the first is higher: 11.2% for the first, -8.5% for the second.

Compared with `COc1ccc(C2C(C(=O)OC3CCCCCC3)=C(C)NC3=C2C(=O)CC(C)(C)C3)c(OC)c1OC` (stereo not given), `COc1cc(/C=c2/sc3nc4c(Br)c(C)c(C)cc4n3c2=O)ccc1OCC(=O)O` is higher in displacement: -2% for the first, 15.9% for the second.

First: Cc1ccc(Nc2nc(N3CCOCC3)nc(N3CCOCC3)n2)cc1
Second: CCOc1ccc(/C=N/Nc2nc(N3CCOCC3)nc(N3CCOCC3)n2)cc1OC
The displacement of the first is higher: 5.9% for the first, 1.9% for the second.

Compared with `Clc1ccc(CNc2ncn[nH]2)cc1`, `O=c1[nH]c(-c2ccc(-c3ccc([N+](=O)[O-])cc3)o2)nc2sc3c(c12)CCCC3` is higher in displacement: 11.6% for the first, 18.8% for the second.

Going from `N/C(=N\OC(=O)/C=C/c1ccccc1)c1ccccn1` to `C=CCSc1nc2ccccc2n1C(=O)C1C(C=C(Cl)Cl)C1(C)C` (stereo not given), the displacement rises from -0.2% to 7.1%.

— PubChem BioAssay AID1240 (Sanford-Burnham Center for Chemical Genomics, 2008)
